Holding throughout (test): Primary Screen for Target Class Profiling of Small Molecule Inhibitors of Methyltransferases
Experiment [1] concerns the target Glycine N-methyltransferase (Homo sapiens) (UniProt Q14749). Conditions: purified enzyme, MTase-Glo SAH luminescence; measured here: GNMT inhibition; at 40 µM; stronger effect = lower value. The method in brief: (§1)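 Each enzyme was assayed with SAM and its substrate. SAH formation detected by MTase-Glo luminescence; single-point 40 uM screen[…].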
Experiment [2] concerns the target Guanidinoacetate N-methyltransferase (Homo sapiens) (UniProt Q14353). The note with it: purified enzyme, MTase-Glo SAH luminescence; measured here: GAMT inhibition; at 40 µM; stronger effect = lower value. The method in brief: as §1
Experiment [3] deals with Histamine N-methyltransferase (Homo sapiens) (UniProt P50135). The note with it: purified enzyme, MTase-Glo SAH luminescence; measured here: HNMT inhibition; at 40 µM; stronger effect = lower value. The method in brief:
as §1

Experiment [4] deals with Nicotinamide N-methyltransferase (Homo sapiens) (UniProt P40261). The note with it: purified enzyme, MTase-Glo SAH luminescence; measured here: NNMT inhibition; at 40 µM; stronger effect = lower value. The method in brief:
as §1

Experiment [5] has as its target Phenylethanolamine N-methyltransferase (Homo sapiens) (UniProt P11086). The note with it: purified enzyme, MTase-Glo SAH luminescence; measured here: PNMT inhibition; at 40 µM; stronger effect = lower value. Summed up:
as §1

Some of the results follow. Further columns of the screen follow, without active or inactive calls.
% is scaled to controls: 0 for no effect and ±100 for the full control effect.

As to `COc1ccccc1CCNC(=O)CNC(=O)C1(C)Cn2c(cc3ccccc32)C(=O)N1C` (stereo not given), the activity change, negative = inhibition in experiment [1] was -10%; in experiment [2], 1.49%; in experiment [3], -9.78%; in experiment [4] it was -10.4%; in experiment [5], -5.03%.
For `Cc1cccc(NC(=O)CSc2nnc3n(Cc4ccccc4)c(=O)c4ccccc4n23)c1`, in that order: -6.09%, -4.91%, 1.75%, -6.83% and -6.47%.
For `Cc1[nH]c(=O)c(C#N)cc1-c1ccc2nccn2c1`, in that order: -20.9%, -1.86%, -2.56%, -21.8% and -2.36%.
For `Cc1ccc(CNC(=O)Nc2cnc3c(c2)CCC3)cc1`, in that order: -2.57%, -1.03%, -15.8%, -0.293% and 5.56%.
`COc1ccc(-c2cc3n(n2)CC(C)(C(=O)NCc2ccccc2)N(c2ccc(C)cc2)C3=O)cc1` (stereo not given): the activity change, negative = inhibition was -3.27% in experiment [1]; 4.95% in experiment [2]; 0.705% in experiment [3]; -1.03% in experiment [4]; -1.69% in experiment [5].
With `COc1cc(F)ccc1-c1nccc2c(=O)cc(-c3cnn(C)c3)oc12`, the activity change, negative = inhibition is -10.9% in experiment [1]; -6.35% in experiment [2]; -12.5% in experiment [3]; -28.4% in experiment [4]; -3.4% in experiment [5].
The matching figures for `Cc1ccc(Nc2nc(C)cc3nn(CC(=O)Nc4ccc5c(c4)OCO5)c(=O)n23)cc1`: 11.1%, 0%, 9.48%, -1.95% and 5.09%.
For `CC(C)NC(=O)c1ccc2c(=O)n(C(C)C)c3nn(CC(=O)NCc4ccccc4Cl)c(=O)n3c2c1`, in that order: 4.57%, 4.99%, 6.54%, -4.46% and 5.12%.
The matching figures for `CCC(C)NC(=O)c1ccc2c(=O)n(Cc3ccccc3)c3nn(Cc4ccc(Cl)cc4)c(=O)n3c2c1` (stereo not given): 4.17%, 0.788%, 2.41%, 1.67% and -1.9%.
`O=C(Cn1ccc2cc(S(=O)(=O)N3CCCCC3)ccc21)NCCc1ccco1`: the activity change, negative = inhibition in experiment [1] came out at 3.17%; in experiment [2] it was 3.82%; in experiment [3], 6.15%; in experiment [4], 6.67%; in experiment [5], 1.62%.
For `COC(=O)c1ncn2c1C(=O)N(CCc1cccs1)C(C)(C(=O)NC1CCCCC1)C2` (stereo not given), the activity change, negative = inhibition in experiment [1] is -1.6%; in experiment [2], 3.75%; in experiment [3], -0.566%; in experiment [4] it was 0.537%; in experiment [5] it was -0.492%.
The matching figures for `CC(C)N[C@@H]1CO[C@H](CNC(=O)c2ccccc2)[C@H]1O`: -0.606%, 0.761%, 2.36%, 4.65% and -9.65%.
The matching figures for `COc1ccccc1CNC(=O)C1(C)Cn2nc(-c3ccccc3)cc2C(=O)N1c1ccc(Cl)cc1` (stereo not given): 4.41%, 0%, 4.14%, 6.86% and 2.5%.
For the molecule `NC1CONC1=O` (stereo not given), the activity change, negative = inhibition in experiment [1] is 5.73%; in experiment [2], 15.4%; in experiment [3], 6.81%; in experiment [4], -0.648%; in experiment [5] it was 6.82%.
The matching figures for `CN(C)C[C@@H]1CN(S(C)(=O)=O)C[C@H]1NC(=O)c1ccc(Cl)s1`: 0.691%, -0.015%, 1.12%, -4.83% and 1.48%.
For `COC(=O)C1=COC(OC2OC(CO)C(O)C(O)C2O)C2C(C)CC(=O)C12O` (stereo not given), the activity change, negative = inhibition in experiment [1] is 2.71%; in experiment [2] it was 4.37%; in experiment [3], 9.59%; in experiment [4], -8.8%; in experiment [5], 2%.
The matching figures for `COc1ccccc1CNC(=O)C1c2c(n(C)c3ccccc23)SCC(=O)N1c1ccccc1OC` (stereo not given): 4.34%, 1.39%, 1.74%, -0.731% and 3.01%.
The matching figures for `CC(=O)Nc1c2n(c3ccccc13)CC(C)(C(=O)NC1CCCC1)N(Cc1ccc(F)cc1)C2=O` (stereo not given): -0.435%, 4.51%, 1.13%, 4.48% and 1.77%.
The matching figures for `CCC(C)NC(=O)c1ccc2c(=O)n(CC(C)C)c3nn(CC(=O)NCc4ccccc4)c(=O)n3c2c1` (stereo not given): 4.75%, 0%, 8.99%, 0.239% and -1.38%.
As for `CCc1ccc(N2C(=O)c3cc4occc4n3CC2(C)C(=O)NC2CCCCCCC2)cc1` (stereo not given), the activity change, negative = inhibition in experiment [1] turned out to be 0.352%; in experiment [2], 0%; in experiment [3], 11%; in experiment [4] it was 8.91%; in experiment [5], 2.84%.
The matching figures for `COc1cccc(CNC(=O)Cn2c(=O)oc3cc(S(=O)(=O)NCc4ccccc4)ccc32)c1`: 12.6%, 5.52%, 12.8%, 2.96% and 11%.
The matching figures for `COc1ccc(-c2ccccc2C(=O)N2CCCC2)nn1`: -2.48%, -3.09%, -2.34%, -4.78% and 2.74%.
For `CN1CCN([C@H]2[C@@H]3OC[C@@H](O3)[C@@H](NCc3ccc(-c4ccccc4)cc3)[C@@H]2O)CC1`, in that order: -4.84%, -8.19%, -2.74%, -9.05% and -5.8%.
`CCCC1c2cccn2CCN1C(=O)Nc1ccc(Br)c(C)c1` (stereo not given): the activity change, negative = inhibition in experiment [1] was -7.03%; in experiment [2], 3.15%; in experiment [3], -33.4%; in experiment [4], -11%; in experiment [5] it was -3.01%.
With `C=CCn1c(=O)c2ccc(C(=O)NC(C)CC)cc2n2c(=O)n(CC(=O)Nc3ccccc3F)nc12` (stereo not given), the activity change, negative = inhibition in experiment [1] is 3.95%; in experiment [2], 0%; in experiment [3] it was 3.1%; in experiment [4] it was -2.37%; in experiment [5], 4.13%.
The matching figures for `CCCNC(=O)C1C(c2ccc(NC(=O)c3ccco3)cc2)OC(=O)N1Cc1ccccc1` (stereo not given): -4.67%, -1.1%, -0.025%, -2.47% and -1.37%.
As for `CCN1CCCC1CNC(=O)Cn1ccc2cc(S(=O)(=O)N3CCCCC3)ccc21` (stereo not given), the activity change, negative = inhibition in experiment [1] was 7.09%; in experiment [2], 0%; in experiment [3], -15.3%; in experiment [4] it was 1.18%; in experiment [5], 3.3%.
The matching figures for `C#CCOc1ccc2c(c1)c(-c1ccc(C(C)C)cc1)nc(=O)n2C(C)C`: -20.8%, -6.17%, 0.862%, -49% and -7.57%.
For `COc1cc2nc(N3CCCC3)nc(NCCCCCN3CCCC3)c2cc1OC`, in that order: -13.3%, 1.35%, -73.4%, -47.7% and -16.6%.

The values are drawn from PubChem BioAssay AID1745853 (National Center for Advancing Translational Sciences (NCATS), 2022).
